The source gives no read counts; variants with many changes may rest on few reads.
B1: LINE1-full (parent)
chain: UACGUAGGUGGUUUUCCCCUGAUAGUGCUAAGGGGGCCUGGAAGUUUGGACUGGGCAGAGCUCAACACAGCGUGGCAAAGUGGCUGUGGCUAGACUGCCUCUCUGGAUUCCUCGUCACUCAGCAGGGCAUCUCUGAGAGAAAUGCC

Variants of: B1
Assay: self-cleavage, relative activity (ratio to wild type); higher = more cleavage; in vitro, sequencing; the parent is a self-cleaving ribozyme

Variant	self-cleavage
U12C U52C U91C	0.59
U9A U13G A69U	0.18
U9C U15C U20C U112A U119A	0.79
C19U G44A U132C	0.91
U9C G55U C110U	0.57
A24U A42U A142U	1.01
G7U U12C A43G A65U	0.53
U9C U134C U143C	0.66
G41U A65G U73A	0.02
U47C U85A U115C	0.13
A59U A67C C99A U112C	0.19
C68U U102A C116U	0.14
A50G U96A C113U	0
A64G A77G U115A	0.53
U12G U85A U130A	0.29
U13C U62A U104C A138G A141G A142G	0
A6G A79G U96A	0.13
G10U A22G G53U U102C U130C	1.97
C90U G106U U119A A138U U143C	0.04
U100A A129G A141G	1.19
G21A U62C U112A	0.03

Variant	self-cleavage
U45C G48A A140G	1.05
G36A A107G U134A	0.87
U14C A67G U85C	0
U13C G33C U91C G144A	1.11
A59G A67U U102C U143A	0.09
A2G A43C A59G U73C	1.84
U9A U45C U81A U85C	0.27
U5C U46C A64G A79G A141G	0
A24G A65G G82A	0.06
U26A U62A A65G	0.06
U26C U104A A142G	1.39
U14C U52A A124G	0.68
U109C U115A U119C	1.36
G35A C103G A121G	1.71
U46C A57U U132C	0.2
U14C U52A A67U U81G U112A	0.17
U13C A67U U102A	0.29
U14C U46A A57U G97U	0.05
U46C C61A U100C U115C U132C	0.06
A31U A78G U104A	0.84
A79U U87C U102C	0.09

Variant	self-cleavage
G70A U112A A138G	0.18
U47A A78G U104C U109A A129U	1.31
C38U U52A U102C	1.18
A2G U5A U85A A138G	0.38
G70A G83C A138G	0.54
U1A A43G A138G A142G	2.67
G44A U87C U143C	0.26
U14A U15C A77G U130C	1.84
G8A U15A U62C	0.2
U15C A30C U73A	1.21
A2G U5A A57G A67U	0.64
U62C U108C U134C	0.1
A24U C76U U87C U115C	0.54
G8A A64G A67U	0.06
U102A A117U U132C	1.02
U12G U14A A57U U62C	0.06
A2G U9C U20A U115C U132C	1.02
U115A U130C U143A	2.14
G4A A57U A78G G106A A138G	0.13
U52A U62C G72A U143C	0.04
U9C U20A A30G	0.98

Variant	self-cleavage
A31G A94U G144A	0.14
C28U C61U A94G	0.12
U39C A42U A124U	1.01
U12C G88A C116U	0.06
U9C U52C G70A	0.13
U23C U29C G89A	0.07
U14C U52C G89U U119C A129G	0.23
U13C A31U U47A A107G A136G	0.56
U1C U39G A50G G80A G125A	1.04
U23C A50G A64G C101U	0.44
U45C G60U A77G U109C A138G	0.06
U9A C68A A124G G135A A138G	0.18
U52C G122A A140G	1.17
U13A A129U A136G	1.13
G55U A67C U96C	0.05
A78G U109C A129U U143C	1.04
C3U A79G U85C	0.25
U15C A30G U73A	0
A6G A79G A94U A107G	0.84
U45C U52A A107G U119A	1.64

From the RNAGym collection of RNA variant scans (doi:10.7554/elife.90254)
